Laboratory results from patent publication US20060160798A1, “Viral polymerase inhibitors” (Boehringer Ingelheim (Canada) Ltd., priority 2001, published 2006).
pEC50: −log10 of the molar value.

Test system: Huh7 cells that stably maintain a subgenomic HCV replicon (S22.3 cell-line)
Experiment: Cell based HCV RNA replication assay (S22.3 replicon cells, real-time RT-PCR)
Conditions: Hepatitis C virus
[1] = Huh-7, 72 h, S22.3 cells, 72 hours incubation, HCV RNA by RT-PCR

## CCNc1nc(-c2c(C3CCCC3)c3ccc(C(=O)NC(C)(C)C(=O)Nc4ccc(/C=C/C(=O)O)cc4)cc3n2C)cs1 [Entry 6010]
Huh-7, Table 6
  pEC50: > 6.30

## Cn1c(-c2csc(NCCN3CCCCC3)n2)c(C2CCCC2)c2ccc(C(=O)NC(C)(C)C(=O)Nc3ccc(/C=C/C(=O)O)cc3)cc21 [Entry 6023]
Huh-7, Table 6
  pEC50: > 6.30

## C/C(=C\c1ccc(NC(=O)C2(NC(=O)c3ccc4c(C5CCCC5)c(-c5nccs5)n(C)c4c3)CCC2)cc1)C(=O)O [Entry 7049]
Huh-7, Table 7
  pEC50: > 6.30

## CCCNc1nc(-c2c(C3CCCC3)c3ccc(C(=O)NC4(C(=O)Nc5ccc(/C=C/C(=O)O)cc5)CCCC4)cc3n2C)cs1 [Entry 6091]
Huh-7, Table 6
  pEC50: > 6.30

## CN1CCC(NC(=O)c2ccc3c(C4CCCC4)c(-c4ccccn4)n(C)c3c2)(c2nc3cc(C=CC(=O)O)ccc3[nH]2)C1 (stereo not drawn) [Entry 1028]
[1]
  pEC50: > 6.30

## Cn1c(-c2ccncc2)c(C2CCCC2)c2ccc(C(=O)NC3(C(=O)Nc4ccc(/C=C/C(=O)O)cc4)CCC3)cc21 [Entry 6039]
Huh-7, Table 6
  pEC50: > 6.30

## COCCNc1nc(-c2c(C3CCCC3)c3ccc(C(=O)NC4(C(=O)Nc5ccc(/C=C/C(=O)O)cc5)CCC4)cc3n2C)cs1 [Entry 6077]
Huh-7, Table 6
  pEC50: > 6.30

## Cn1c(-c2ccc(Cl)cc2)c(C2CCCC2)c2ccc(C(=O)NC3(C(=O)Nc4ccc(/C=C/C(=O)O)cc4)CCC3)cc21 [Entry 6045]
Huh-7, Table 6
  pEC50: > 6.30

## Cn1c(C(=O)O)cc2cc(NC(=O)C(C)(C)NC(=O)c3ccc4c(C5CCCCC5)c(-c5ccccn5)n(C)c4c3)ccc21 [Entry 2093]
[1]
  pEC50: > 6.30

## O=C(O)/C=C/c1ccc(NC(=O)C2(NC(=O)c3ccc4c(C5CCCCC5)c(-c5ccoc5)[nH]c4c3)CCC2)cc1 [Entry 2057]
[1]
  pEC50: > 6.30

## O=C(NC1(C(=O)Nc2ccc(-c3ccc(C(=O)O)o3)cc2)CCCC1)c1ccc2c(C3CCCCC3)c(-c3ccoc3)[nH]c2c1 [Entry 2048]
[1]
  pEC50: > 6.30

## CC(C)(NC(=O)c1ccc2c(C3CCCCC3)c(-c3ccoc3)[nH]c2c1)C(=O)Nc1ccc(-c2nc(C(=O)O)cs2)cc1 [Entry 2017]
[1]
  pEC50: > 6.30

## Cn1c(-c2cnco2)c(C2CCCCC2)c2ccc(C(=O)NC(C)(C)C(=O)Nc3ccc(/C=C/C(=O)O)cc3)cc21 [Entry 2108]
[1]
  pEC50: > 6.30

## Cn1c(-c2ccsc2)c(C2CCCC2)c2ccc(C(=O)NC3(C(=O)Nc4ccc(/C=C/C(=O)O)cc4)CCCC3)cc21 [Entry 6055]
Huh-7, Table 6
  pEC50: > 6.30

## CCCNc1nc(-c2c(C3CCCC3)c3ccc(C(=O)NC(C)(C)C(=O)Nc4ccc(/C=C/C(=O)O)cc4)cc3n2C)cs1 [Entry 6014]
Huh-7, Table 6
  pEC50: > 6.30

## CNc1nc(-c2c(C3CCCC3)c3ccc(C(=O)NC4(C(=O)Nc5ccc(/C=C/C(=O)O)cc5)CCC4)cc3n2C)cs1 [Entry 6072]
Huh-7, Table 6
  pEC50: > 6.30

## CN1CCC(NC(=O)c2ccc3c(C4CCCC4)c(-c4ccccn4)n(C)c3c2)(c2nc3ccc(C=CC(=O)O)cc3[nH]2)CC1 [Entry 1020]
[1]
  pEC50: > 6.30

## Cn1c(-c2ccccn2)c(C2CCCC2)c2ccc(C(=O)NC(C)(C)/C=C/c3ccc(/C=C/C(=O)O)cc3)cc21 [Entry 1016]
[1]
  pEC50: > 6.30

## CC(C)(NC(=O)c1ccc2c(C3CCCCC3)c(-c3ccccc3)[nH]c2c1)C(=O)Nc1ccc(-c2nc(C(=O)O)cs2)cc1 [Entry 2018]
[1]
  pEC50: > 6.30

## Cn1c(-c2csc(-c3cccnc3)n2)c(C2CCCC2)c2ccc(C(=O)NC(C)(C)C(=O)Nc3ccc(/C=C/C(=O)O)cc3)cc21 [Entry 6003]
Huh-7, Table 6
  pEC50: > 6.30

## Cn1c(-c2csc(NC(=O)CC(C)(C)C)n2)c(C2CCCC2)c2ccc(C(=O)NC3(C(=O)Nc4ccc(/C=C/C(=O)O)cc4)CCCC3)cc21 [Entry 6095]
Huh-7, Table 6
  pEC50: > 6.30

## CC(=O)N1CCC(NC(=O)c2ccc3c(C4CCCCC4)c(-c4ccccn4)n(C)c3c2)(C(=O)Nc2ccc(C=CC(=O)O)cc2)C1 (stereo not drawn) [Entry 2106]
[1]
  pEC50: > 6.30

## CCc1ccnc(-c2c(C3CCCC3)c3ccc(C(=O)NC4(C(=O)Nc5ccc(/C=C/C(=O)O)cc5)CCCC4)cc3n2C)c1 [Entry 6067]
Huh-7, Table 6
  pEC50: 5.30 to 6.30

## Cc1c(C(=O)O)sc2ccc(NC(=O)C3(NC(=O)c4ccc5c(C6CCCCC6)c(-c6ccoc6)[nH]c5c4)CCCC3)cc12 [Entry 2046]
[1]
  pEC50: > 6.30

## Cn1c(-c2cccc(N)n2)c(C2CCCC2)c2ccc(C(=O)NC3(C(=O)Nc4ccc(/C=C/C(=O)O)cc4)CC3)cc21 [Entry 6037]
Huh-7, Table 6
  pEC50: > 6.30

## Cn1c(-c2csc(N)n2)c(C2CCCC2)c2ccc(C(=O)NC3(C(=O)Nc4ccc(/C=C/C(=O)O)cc4)CCCC3)cc21 [Entry 6089]
Huh-7, Table 6
  pEC50: > 6.30

## O=C(O)/C=C/c1ccc(NC(=O)C2(NC(=O)c3ccc4c(C5CCCCC5)c(-c5ccoc5)n(Cc5ccccc5)c4c3)CCCC2)cc1 [Entry 2040]
[1]
  pEC50: > 6.30

## Cc1ccc(-c2c(C3CCCC3)c3ccc(C(=O)NC4(C(=O)Nc5ccc(-c6ccc(C(=O)O)o6)cc5)CCCC4)cc3n2C)cn1 [Entry 7033]
Huh-7, Table 7
  pEC50: > 6.30

## CN1CCC(NC(=O)c2ccc3c(C4CCCC4)c(-c4ccsc4)n(C)c3c2)(C(=O)Nc2ccc(/C=C/C(=O)O)cc2)CC1 [Entry 6056]
Huh-7, Table 6
  pEC50: > 6.30

## Cc1ccc(-c2c(C3CCCC3)c3ccc(C(=O)NC4(C(=O)Nc5ccc6c(c5)cc(C(=O)O)n6C)CCC4)cc3n2C)cn1 [Entry 7035]
Huh-7, Table 7
  pEC50: > 6.30

## C/C(=C\c1ccc(NC(=O)C2(NC(=O)c3ccc4c(C5CCCC5)c(-c5cccc(N)c5)n(C)c4c3)CCC2)cc1)C(=O)O [Entry 7014]
Huh-7, Table 7
  pEC50: > 6.30

## O=C(O)/C=C/c1ccc(NC(=O)C2(NC(=O)c3ccc4c(C5CCCCC5)c(-c5ccoc5)[nH]c4c3)CCCC2)cc1 [Entry 2036]
[1]
  pEC50: > 6.30

## Cn1c(-c2cccnc2)c(C2CCCCC2)c2ccc(C(=O)NC(C)(C)C(=O)Nc3ccc(/C=C/C(=O)O)cc3)cc21 [Entry 2068]
[1]
  pEC50: > 6.30

## CCN1CCC(NC(=O)c2ccc3c(C4CCCCC4)c(-c4ccccn4)n(C)c3c2)(C(=O)Nc2ccc3sc(C(=O)O)c(C)c3c2)CC1 [Entry 2099]
[1]
  pEC50: > 6.30

## CC(C)N(C)c1nc(-c2c(C3CCCC3)c3ccc(C(=O)NC(C)(C)C(=O)Nc4ccc(/C=C/C(=O)O)cc4)cc3n2C)cs1 [Entry 6034]
Huh-7, Table 6
  pEC50: > 6.30

## Cn1c(-c2csc(NC(=O)C(C)(C)C)n2)c(C2CCCC2)c2ccc(C(=O)NC3(C(=O)Nc4ccc(/C=C/C(=O)O)cc4)CCCC3)cc21 [Entry 6096]
Huh-7, Table 6
  pEC50: > 6.30
